Reference: the supplement of paper PMC3334620
Over roughly 33,000 sequences, “E-score (-0.5 to 0.5)” has its median near -0.035; the highest 2% begin near 0.34. The list shows a part of the results.

Each sequence was assayed against T1, Mot3 (UniProt P54785) (assay: PBM E-score (8-mer binding enrichment) (E-score (-0.5 to 0.5)); higher = stronger / more preferred TF binding; most listed sequences are background and not binding sites). Conditions: protein concentration: 200 nM; construct: GST-full length.
T1 sequence: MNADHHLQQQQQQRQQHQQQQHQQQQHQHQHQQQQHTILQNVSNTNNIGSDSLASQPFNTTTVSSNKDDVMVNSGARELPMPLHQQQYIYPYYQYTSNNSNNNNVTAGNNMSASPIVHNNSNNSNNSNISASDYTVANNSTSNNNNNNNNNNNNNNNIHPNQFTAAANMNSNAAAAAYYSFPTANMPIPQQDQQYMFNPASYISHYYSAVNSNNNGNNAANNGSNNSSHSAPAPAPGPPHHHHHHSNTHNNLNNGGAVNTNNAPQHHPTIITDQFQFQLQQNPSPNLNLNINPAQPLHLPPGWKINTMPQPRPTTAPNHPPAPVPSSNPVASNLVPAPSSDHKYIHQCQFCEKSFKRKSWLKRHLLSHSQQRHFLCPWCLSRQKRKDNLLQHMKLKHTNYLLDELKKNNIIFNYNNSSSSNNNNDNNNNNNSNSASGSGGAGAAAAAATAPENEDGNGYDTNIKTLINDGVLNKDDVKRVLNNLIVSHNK
Summary of the method: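 Universal all-10-mer Agilent arrays, fresh or stripped once, were converted to double-stranded form by primer extension. GST-tagged yeast transcription factors from PURExpress in vitro transcription/translation, full-length or DNA-binding domain only, were applied at about 100-200 nM and detected with fluorescent anti-GST. After masliner normalisation, the Universal PBM Analysis Suite scored each ungapped eight-base word together with its reverse complement by E-score.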

Sequence	PBM E-score
CTCCAAGC	0.0273
GGGCGCGA	-0.105
CATACATG	0.291
AGCCCCGG	-0.135
GGCCTCAA	0.00845
CCCGCGGC	-0.266
CCCTCAGC	-0.323
AAATCACG	0.0517
GGCCCCCA	-0.276
CTACTAGC	0.0344
ACGACCCC	-0.219
CAGATGAC	-0.0736
ACAACAGT	-0.0268
AACGGCAT	-0.00767
CTCAGCGC	-0.0661
GACTTACC	-0.0893
GGGGGGTA	-0.204
AACAATTG	0.121
ACTCAAAC	0.0499
CACCTAGC	-0.153
GTGATATA	-0.122
ACTGAGTC	-0.0968
ATGAAGCC	-0.0612
TCTTCACA	0.169
CGCACAAC	0.0497

Sequence	PBM E-score
ATCTCCGA	-0.0589
ATCCCGGG	-0.052
CCGAGTAG	-0.0936
CAGCTGAA	-0.0396
AGGAATTG	0.053
GGCCGCGA	-0.285
GACGCTAC	-0.0985
ACGGAAAG	0.0318
GATGCTGA	-0.305
CCAACACG	0.299
GCCTGTCC	0.034
CGGACGAG	-0.0659
AATGAATA	0.00325
GTACCGCA	-0.00578
ACTAACCT	0.0108
CTTACCAA	0.0403
CTATACCC	-0.0192
TGTCACAA	0.08
GCCCGCGA	-0.199
CAGGGGGC	-0.249
AGCGGTAG	-0.173
CCGCGTTC	0.0486
GACGATGA	0.0203
AAAATCGG	-0.0815
ACCTGTAT	0.266

Sequence	PBM E-score
GTCCTGGA	-0.133
CGCGATGC	-0.0852
CAAATATA	0.171
CAGGACGC	0.0508
TGTGTCAA	0.296
CATATCGG	-0.148
ACAGGTGA	0.0111
AGGGTCCG	-0.269
AGTTCCCA	-0.14
CTTCTCCA	-0.137
TAAGCAAA	0.15
CAGTACCG	-0.224
GTTTGAGA	0.0186
GCAACGGA	-0.0353
ACTGGCCG	-0.258
AGGATGTA	0.311
GACGTTTA	-0.0146
CTGTCTAC	0.0522
GAAAAATC	0.0298
ACAATCTC	-0.0856
AACTCACC	-0.168
CGTAGAAC	0.122
ATAGAAGC	0.0532
AGTCTAGG	-0.0777
ATCCATTC	-0.106

Sequence	PBM E-score
AAAGCGAA	-0.0621
CATTGGGG	-0.157
CAGGGTTC	-0.184
AAGTGATG	0.108
AGTGTTGA	0.073
AGGGGCAA	0.0199
AGTTCCAA	0.0451
AATTGCAC	0.116
GTAAGACA	0.161
TATTTAAA	0.231
AAACAAGG	0.247
AATACCCA	-0.083
CGTACTGC	-0.139
GGGACCGA	-0.185
GGTATTAC	0.138
AAGACTGT	-0.133
GGATTCGA	-0.033
AAGTTGAG	-0.0243
AACTCGTC	0.106
ACTTCTCG	-0.0532
CAGGTCGA	0.148
ACGAAACC	0.097
AATTCGAG	0.0353
GCACCGAA	0.0213
CACTCAGC	-0.249

Sequence	PBM E-score
ATCCTTGG	-0.0679
AGAAAAAA	0.129
CCATTTAA	0.0671
CCCGGGAG	-0.304
CCCCAACC	-0.0749
GGACGTCC	-0.327
AATAGTGC	0.143
CATAAGTC	0.0958
CTACATCC	0.0648
CAGTACAC	0.218
ATTAACGG	-0.101
GTTGAGAA	-0.0381
AGGGGGTC	-0.218
ATGGCCTA	-0.1
GACGTGCC	0.173
TCCCTGCA	-0.0548
GACCAATC	-0.039
GTACTGCA	0.0111
ACTGCTCT	-0.195
GTGTCAGA	0.0761
ACTAAGAG	-0.101
AGTAATAA	0.17
AGCGGTGA	-0.265
CGCATGCA	-0.0205
AGGCCGTA	-0.106

Sequence	PBM E-score
GAAATGCC	0.0717
AGAAAGAC	-0.33
CAGAACAG	0.116
GATTTCGA	-0.163
ACGCGGCC	-0.0222
CGGAAGGC	0.162
ATAAGAGC	-0.0184
GAAGACCA	-0.209
GAGTAGAA	0.102
ACAGCCAG	-0.0488
ATTCATCA	0.00565
ACTCTTCC	-0.185
AACACTGG	0.00047
CGATGGAA	-0.0568
ACGCAGCG	0.0958
CAGCCCGA	-0.166
AGGTAGTA	0.0515
GAGCAGCC	-0.047
GTATGTCA	0.275
TCTAAACA	0.209
AGCCGTAA	-0.127
CCTGCTAA	-0.0653
GCGCACCA	-0.00988
ACAAGATC	0.186
AAGAGGAT	-0.115

Sequence	PBM E-score
AAAATTGT	0.181
CTATGCAG	-0.061
CTTACGAA	0.183
ATGCGACG	-0.123
AGTCATTC	-0.143
AGGAACAC	0.404
AACCTACA	0.247
CACCTAGA	-0.0837
TACTCGGA	-0.0585
GAGGGCAA	-0.0612
TACTGGCA	-0.257
GTCTAGAC	-0.248
ATACCGCC	-0.117
GTCTTGTA	0.24
ATCTGGCC	-0.206
TAATTGCA	0.175
TAATGGTA	-0.0912
CCTCCCAC	-0.198
AAATTGTA	0.156
TAGTAACA	0.218
CAGCCGTC	-0.241
AATGCCTC	-0.0227
ATTGTATG	-0.0226
CGCTATTC	-0.0135
GCAGCTTA	0.0614

Sequence	PBM E-score
ACGAGTTA	0.195
CCCCAAGA	-0.0859
TACTGCGA	-0.17
CACGGACA	-0.0498
ATTCATTC	-0.0178
CATTTTAC	0.298
AGGCCCCT	0.185
TCAAACGA	0.0676
GACATATA	0.125
CTCCATGA	-0.0764
AAGCGTAA	0.0617
AGCCATAA	-0.00806
AGACATCC	-0.114
GAGACTTA	-0.00325
ACCAAATC	-0.166
AGATTACC	0.157
CTTCGGCA	-0.119
AGGTTCTC	0.157
GTAAGTAC	0.175
CTTATGCA	0.0715
AGCACGAA	0.121
GCCTGCTA	0.25
AGTGAGGC	0.0478
CCACCCAC	-0.197
AAGACCGA	0.0842

Sequence	PBM E-score
AGCGCTAT	-0.0279
CCGGGTTA	-0.216
AGAACTCG	0.0988
CAGGTTTC	0.122
GCAGTTCA	-0.221
CGTTCTGA	-0.16
CCGGAGGC	-0.102
CTCTCACA	0.0076
CGTTACTA	0.0504
AGTCACGA	0.288
AAGTCAAT	0.00037
ATTATCCG	-0.00522
ATTCCTAC	0.0233
CTGTGAGA	-0.01
AAGCGCTC	-0.182
GTGTGCCA	-0.0899
AGAGCAAC	0.0531
AGTATTTG	0.0214
GATGACGC	0.0115
CGGCAATC	-0.109
GAAAGACA	0.0377
CGCATGGC	-0.00273
GGTCGGGA	-0.182
CTCATTCC	-0.113
ACATACCA	0.172

Sequence	PBM E-score
CCGGATCG	-0.243
ACGTAACT	0.104
AACGTTAT	0.123
ATTGCGGG	0.0282
ATTTTGAG	-0.122
CGGTCACC	-0.215
AGCGGGCA	-0.212
CAGTTGCG	-0.124
AAGCTAAA	-0.0059
ACAGTTTG	-0.0633
AATCCACC	-0.179
ACACTGGT	-0.0585
ATAACGTG	0.229
CCGTACAA	-0.0477
CGAGCCAG	-0.0469
AGCCTATC	-0.23
CAAGCCAG	0.069
CAAATGGA	-0.0484
ACTGTACG	-0.0297
CATACCAG	-0.231
GCTGGTTA	0.0678
AAAGTTAG	0.145
ATGTCGCC	-0.0401
CACAAAAA	0.147
ATATGAAG	-0.137

Sequence	PBM E-score
ATGTGCAA	0.03
CACTAGCC	-0.0923
ACGATTAT	0.0588
AGCAGGTG	0.167
AACCGCCT	-0.068
GCGCCCCA	-0.192
AACAGCTC	-0.162
AGGAAATG	0.262
TAAGTAAA	0.188
AAATCCGT	-0.115
GACTCTCC	-0.167
GACTGACA	-0.0818
TTCCGGAA	-0.148
CAAAGAAA	0.131
ACCTTGCG	0.0557
CTACCGGC	-0.145
AGAGTCCA	-0.225
ATTCGGTG	0.0583
AAGCTACT	-0.029
ACCCCGGG	-0.269
ATTATCGG	-0.144
GGGAGTCA	-0.264
GCTCCATA	-0.293
CGTGCTCC	-0.248
ACCCCATG	0.106

Sequence	PBM E-score
CTGCAAGA	0.0551
ATAACCAT	0.0127
GACAGAAC	-0.0671
ATGAAGGA	0.224
GCCACCCA	-0.223
ATCAATTG	0.122
ACCTCGCG	-0.164
CTCTTTGA	-0.0974
ACCTACCG	0.0568
CGCTGAAG	-0.201
ACGTGCAG	0.0565
GTTATGAA	0.159
CAATTGAA	-0.0107
CCGTTGCA	-0.0576
CTGGATGC	-0.174
GAGTCATC	-0.243
AACTCCTT	0.0524
GGGGATGA	-0.289
AAGTGAGC	-0.16
TAAGCCGA	-0.0394
CCCACACA	-0.142
ACGACCTG	-0.0223
ACTACCTC	-0.0675
GTAAGCTA	-0.0549
ATAAACCC	0.0128

Sequence	PBM E-score
CAAACAAC	0.162
ACTTCTGA	-0.101
AGCGTCAG	-0.191
ACTTCGTA	0.058
CCTGATGA	0.0626
AAGAATCG	0.038
GACAACGC	0.0171
ACTTACCC	0.0416
ACGTGAGC	-0.0873
AGACCGTG	0.06
GCCTACAC	0.344
CTGCGGGA	-0.182
ATTCGTGG	-0.0319
GCATCGAA	-0.204
AATCTACT	-0.0291
AGCTCGCC	-0.115
GTCTTGCA	-0.00912
GCATCACA	0.0593
ACGCGTCA	0.253
GTCTGACA	0.00096
CCGACCGC	-0.327
TAGGACGA	-0.0724
GAATCCGC	-0.0662
TAACATCA	0.25
ACCCAGGG	-0.216

Sequence	PBM E-score
CGAGTCAA	-0.127
CGGCGCCG	-0.179
TAAACTCA	0.0852
AGCCACAC	-0.161
AAACTCAT	0.0282
CGCAGATC	-0.158
CGACTACG	-0.0338
CTGATACA	0.0291
CATGAGCA	-0.121
AAGTCTCC	-0.0176
CAATTGTG	-0.0094
ATACCGTC	-0.0241
CTAGACTC	-0.37
ATGCATGA	0.0899
AAGCCTAA	0.129
AACACCGA	0.0814
AAGGGGTA	-0.053
AGGTGCAT	0.0335
CAGCTGTC	-0.0706
